Assay results from PubChem BioAssay AID1347073 (National Center for Advancing Translational Sciences (NCATS), 2019).
Out of some 45,000 compounds screened, about 200 (0.44%) were called active. Inconclusive results (about 7%) are left out. The call rests on the fitted dose curve; in most records, active means well fitted activation curve with a large enough effect; inconclusive means small, poorly fitted or top-dose-only effect; inactive means no such curve, though single readings can be large or run the other way. The list shows a part of the results.

assay: qHTS of TDP-43 Inhibitors: NCGC Sytravon Library Screen; settings: yeast TDP-43 toxicity rescue, BacTiter-Glo growth, 24 h; series mostly up to 46.1 µM; growth rescue (activation): at the top concentration; further: 0% is about no effect; nearly all actives have a fitted effect of over 55% in size
Procedure, shortened: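 TDP-43-expressing yeast, pregrown in raffinose, seeded at OD600 0.02 in galactose medium with compound for 24 hr at 30 deg C. Growth read by BacTiter-Glo luminescence, so rescue of toxicity appears as activation.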

Compound | growth rescue (activation)
COc1cccc2cc(C(C)N(CCCN3CCOCC3)C(=S)Nc3ccc(C)c(C)c3)oc12 (configuration not stated) | inactive: 5.71%
Cc1cc2nc(-c3cccc(NC(=O)c4cccc5ccccc45)c3)oc2cc1C | inactive: 1.07%
CCCCOc1ccc2c(c1)/C(=C(\C(Cl)=C(Cl)Cl)[N+](=O)[O-])N2 | inactive: 1.66%
O=C(CSCc1ccc(Br)cc1)NC1CC1 | inactive: 14.9%
C/C=C/c1ccc(OCC(=O)O)c(OC)c1 | inactive: 0.147%
COCCNC(=O)C1(C)CCCN(C(=O)c2cccc(C(F)(F)F)c2)C1 (configuration not stated) | inactive: -14.6%
CCOc1ccc(C(=O)N2CCN(c3cnn(-c4ccccc4)c(=O)c3Cl)CC2)cc1 | inactive: -16.9%
CC(=O)Nc1ccc(NC(=O)C2CCN(c3ccc(C(F)(F)F)cn3)CC2)cc1 | inactive: 10.7%
COC(c1ccccc1)c1nnc(CCC(=O)N2CCN(CCOc3ccccc3)CC2)o1 (configuration not stated) | inactive: 13.8%
COc1ccc(OCC(=O)N2N=C(C)CC2(O)C(F)(F)F)cc1 (configuration not stated) | inactive: 15.2%
Cc1ccc(-n2ncc3c2CCCC3NC(=O)CCc2cnccn2)cc1C (configuration not stated) | inactive: 28.7%
CCOC(=O)c1c(NC(=O)CN2CCN(C(=O)C3CCCO3)CC2)sc(C)c1C (configuration not stated) | inactive: -3.13%
CCOc1ccc(C(=O)NC(=S)N2CCN(c3ccc(C(F)(F)F)cc3[N+](=O)[O-])CC2)cc1 | inactive: 20.2%
CCCNC(=O)C1(C)CCCN(C(=O)c2cc(C)nn2C(C)(C)C)C1 (configuration not stated) | inactive: -4.51%
O=C(COc1ccc(Cl)cc1Cl)NCC1(N2CCOCC2)CCCCC1 | inactive: -9.31%
COc1ccc(C(=O)NNC(=O)CSc2nnc(-c3cccnc3)n2C)cc1 | inactive: 10%
COc1ccc(CCNC(=O)Nc2nnc([C@@H]3C[C@H](O)[C@@H](CO)O3)s2)cc1OC | inactive: -10.8%
CCCC(C(=O)NC1CCCC1)N(C(=O)c1snc(C(N)=O)c1N)c1ccc(F)cc1 (configuration not stated) | inactive: 0.565%
OCCC1CN(Cc2cccn2-c2ncccn2)CCN1Cc1ccc(F)cc1 (configuration not stated) | inactive: 11.5%
CC(=O)c1ccc(NC(=O)C(C)NCc2ccccc2Cl)cc1 (configuration not stated) | inactive: 8.19%
CC(=O)c1ccc(NC(=O)Cc2ccsc2)cc1 | inactive: 15.2%
O=C(/C=C/c1cccc(Cl)c1)Nc1ncccn1 | inactive: -1.07%

Compound | growth rescue (activation)
COc1ccc(CCNC(=O)c2ccc(-c3ccc([N+](=O)[O-])cc3)o2)cc1OC | inactive: 11.1%
COCCn1c(C)cc(C(=O)CSc2nc3ccccc3c(=O)n2C(C)COC)c1C (configuration not stated) | inactive: -12.9%
COc1ccc(-c2nnc(SCC(=O)c3ccco3)n2-c2ccccc2)cc1 | inactive: 26.9%
Cc1ccc(O)c(NS(=O)(=O)c2cccc3nsnc23)c1 | inactive: 28.7%
CCN1CCSc2ccc(C(=O)NCc3ccc(OC(C)C)cc3)cc21 | inactive: 8.04%
COc1cccc(NC(=S)N/N=C2\CC3CCC2(C)C3(C)C)c1 (configuration not stated) | inactive: 26.6%
O=C(CCc1nc(-c2cccs2)no1)Nc1cnc2ccccc2c1 | inactive: 10.9%
CS(=O)(=O)N(CC(=O)NCc1ccco1)c1ccc(OCc2ccccc2)cc1 | inactive: -6.14%
CC(O)CNc1nc2sc3c(c2c(=O)n1CCc1ccccc1)CCCCC3 (configuration not stated) | inactive: -15.1%
CCCCN1C(=O)c2ccc(C(=O)N(C)CC(=O)Nc3ccc(OCC)c(OCC)c3)cc2C1=O | inactive: 22.6%
O=C(Nc1cccc(F)c1)NC1(C(=O)NCC2CCCO2)CCCCC1 (configuration not stated) | inactive: 11.3%
COCCCNc1nc2nonc2nc1N1CCN(C2CCCC2)CC1 | inactive: 2.93%
COc1ccc(-n2nc(C(=O)NCC(=O)NCc3ccc(F)cc3)c3ccccc3c2=O)cc1OC | inactive: -3.69%
Cc1cccn2c(=O)c3cc(C(=O)NCC4CCCO4)c(=N)n(CCN4CCOCC4)c3nc12 (configuration not stated) | inactive: 23%
Clc1ccc(C2=NN(c3ccccc3)C(c3ccco3)C2)cc1 (configuration not stated) | inactive: 15.3%
CCc1ccc(CN2CCC(CO)(CC3CCCCO3)CC2)o1 (configuration not stated) | inactive: 10.8%
Cc1cccc(NC(=O)CSc2nc3c(c(=O)[nH]2)CCC3)c1C | inactive: 4.62%
Cc1ccc2c(COC(=O)CC3Sc4ccccc4NC3=O)cc(=O)oc2c1C (configuration not stated) | inactive: 7.53%
Cc1ccc(-c2nnn(CC(=O)NC(=O)NC3CCCCC3)n2)cc1 | inactive: 23.5%
CCn1c(C)nnc1SCC(=O)Nc1ccc(N2CCOCC2)cc1 | inactive: -6.85%
Cc1ccc(-n2cccn2)c(CN2CCCC(C(=O)c3ccc4c(c3)OCO4)C2)c1 (configuration not stated) | inactive: -12.1%
O=C(O)C1CCCCC1C(=O)N1CCCC1 (configuration not stated) | inactive: 5.63%

Compound | growth rescue (activation)
COc1ccc(OCC(=O)Nc2ccc3oc(-c4ccncc4)nc3c2)cc1 | inactive: 3.06%
COc1ccc(-c2nnc(SCC(=O)NNC(=O)c3ccc(C)cc3)o2)cc1 | inactive: 12.5%
Cc1ccccc1Oc1nc2ccccn2c(=O)c1/C=C(\C#N)c1nc2ccccc2[nH]1 | inactive: 8.81%
CN(C)c1ccc(NC(=O)CN2CCc3ccccc3C2)cc1 | inactive: 12.8%
N#CCCN(C(=O)CN1CCN(S(=O)(=O)c2ccc(Cl)s2)CC1)c1ccc(F)cc1 | inactive: 15.1%
CCOc1ccc(OCc2ccc(C(=O)NN=Cc3ccc[nH]3)cc2)cc1 | inactive: 9.74%
CCOc1ccccc1NC(=O)C(OC(=O)c1ccccc1)c1ccccc1 (configuration not stated) | inactive: 17.1%
Cc1cc(NC(=O)COC(=O)C2COc3ccccc3O2)no1 (configuration not stated) | inactive: 16.8%
O=[N+]([O-])c1ccc(CSC2=NCCS2)cc1 | inactive: 27.6%
COC(=O)C(C)NC(=O)COc1ccc2ccccc2c1 (configuration not stated) | inactive: -17.5%
COc1cc(C)c(COc2ncnc3ccccc23)cc1OC | inactive: -3.53%
COc1cc2c(cc1NC(=S)NC(=O)/C=C/c1ccco1)oc1ccccc12 | inactive: -1.45%
COc1ccc(/C(O)=C2/C(=O)C(=O)N(c3ncccn3)C2c2ccc(F)cc2)cc1 (configuration not stated) | inactive: -10.3%
COc1cc(NC(=O)CCc2c(C)[nH]c(=O)c(C#N)c2C)cc(OC)c1 | inactive: 7.45%
CCN1CCN(C(=O)c2ccc(CN(c3ccccc3)S(=O)(=O)c3ccccc3)cc2)CC1 | inactive: 9.02%
COc1ccc(-c2csc(NC(=O)C(CC(=O)O)N3CCOCC3)n2)cc1 (configuration not stated) | inactive: 14.5%
COc1ccc(CN2CCCC(CNC(=O)c3ccc(F)cc3)C2)cc1OC (configuration not stated) | inactive: 2.33%
c1ccc2c(c1)COC(CNC1CCCCC1)OC2 | inactive: -12.2%
O=C(CSc1nnc2c(n1)[nH]c1ccccc12)Nc1ccc(N2CCOCC2)cc1 | inactive: 6.56%
CCc1ccccc1NC(=O)C1CCN(C(=O)c2cccs2)CC1 | inactive: 5.98%
Cc1cc(C(=O)Nc2ccccc2C(=O)N2CCCCC2)ccc1[N+](=O)[O-] | inactive: -3.37%
Nc1c2c(nn1-c1ccccc1)CCC2 | inactive: -35.7%

Compound | growth rescue (activation)
Cc1cc(NC(=O)Cn2cnc3sc(C)c(C)c3c2=O)no1 | inactive: -1.69%
CC(=O)Nc1ccc(C(=O)OCC(=O)N2CCCC2=O)cc1 | inactive: 4.98%
O=C(N/N=C/c1ccc(OC(F)F)cc1)c1cc[n+]([O-])cc1 | inactive: 1.92%
Cc1ccc(C(=O)NC(=S)Nc2ccc(N3CCOCC3)cc2)cc1 | inactive: 4.79%
COc1ccc2nc(C)cc(SCC(=O)N/N=C/c3c(OC)ccc4ccccc34)c2c1 | inactive: -2.01%
Cc1cc(N2CCN(C)CC2)nc2ccc(NC(=S)N3CCCCC3)cc12 | inactive: -16.3%
CC(C)Oc1ccc(C(=O)Nc2cccc3cccnc23)cc1 | inactive: -7.85%
COC(=O)CCC(=O)Nc1cc(S(=O)(=O)Nc2ccc(Cl)cc2)ccc1N1CCOCC1 | inactive: -5.54%
Cc1c(CN2CCC(CO)(CCOc3ccccc3)CC2)[nH]c2ccc(Cl)cc12 | inactive: -2.2%
CC(C)CCNC(=O)C1CCC(=O)N1CCc1ccccc1 (configuration not stated) | inactive: -9.15%
CCOc1c(O)ccc(/C=C2\SC(=S)NC2=O)c1[N+](=O)[O-] | inactive: -5.97%
COc1ccc(NC(=O)c2cc([N+](=O)[O-])ccc2N2CCCCC2)cc1 | inactive: -2.58%
O=C(NCc1ccccc1OC(F)(F)F)C1CCC(=O)N(Cc2cccc(F)c2)C1 (configuration not stated) | inactive: -5.95%
COCC(=O)Nc1cc(C(=O)OC)cc(C(=O)OC)c1 | inactive: -1.46%
CN1CCN(CC(=O)Nc2nc(-c3ccccc3)cs2)CC1 | inactive: 27.7%
Cc1ccc(/C=C/C(=O)OCC(=O)NCCc2ccc(S(N)(=O)=O)cc2)o1 | inactive: 1.25%
Cc1nn(-c2ccccc2)c(C)c1N | inactive: 3.51%
O=[N+]([O-])c1ccc(/C([O-])=C(/C(=S)NCc2ccco2)[n+]2ccccc2)cc1 | inactive: -3.55%
O=C(/C=C/c1ccc(F)cc1)c1ccc(N2CCOCC2)cc1 | inactive: 12.3%
COc1ccc(C2c3c(oc4ccccc4c3=O)C(=O)N2CCN2CCOCC2)cc1OC (configuration not stated) | inactive: 0.997%
Cc1noc(C)c1COC(=O)c1ccccc1NC(=O)c1ccco1 | inactive: 26.6%
COc1ccc(/C(N)=N/O)cc1O | inactive: -3.41%

Compound | growth rescue (activation)
COC(=O)[C@H](CC(C)C)NC(=O)NCCCc1ccccc1 | inactive: 10.7%
CN(CC(=O)N1CCCCC1)S(=O)(=O)c1ccc(Cl)cc1 | inactive: -5.07%
COc1cccc(C(=O)Oc2ccc(/C=N/NC(=O)c3ccncc3)cc2OC)c1 | inactive: 3.45%
COC(=O)c1c(NC(C)=O)sc(C(=O)N2CCOCC2)c1C | inactive: 9.44%
Cc1ccc(OCC(=O)N/N=C\c2ccc(C)o2)c([N+](=O)[O-])c1 | inactive: 2.11%
CC(=O)Nc1cccc(-c2cc(NC(C)=O)c3ncc(-c4cccc(C(C)=O)c4)n3c2)c1 | inactive: 1.97%
CCC(=O)NC(=S)Nc1ccc(NC(=O)c2ccc([N+](=O)[O-])cc2)cc1 | inactive: 8.6%
COc1cccc(C(=O)/C=C/Nc2ccc(S(=O)(=O)Nc3cc(OC)nc(OC)n3)cc2)c1 | inactive: -9.8%
Cc1nn(C)cc1S(=O)(=O)Nc1cccc(Cl)c1 | inactive: 11.6%
CN(C)c1ncnc2c1ncn2[C@H]1CN(Cc2ccncc2)C[C@@H](CO)O1 | inactive: -6.46%
O=C1NC(=Nc2ccc(O)cc2)S/C1=C/c1ccco1 | inactive: 5.76%
COc1ccc(C)cc1S(=O)(=O)Nc1cccc(SC)c1 | inactive: 21.1%
Cc1nc2c(OCc3ccc(C(F)(F)F)cc3)cccn2c1N(C)CC1CC1 | inactive: 2.16%
COc1ccccc1CN(C)CC(=O)Nc1ccc(Cl)cc1C(F)(F)F | inactive: -10.1%
CCCOc1ccc2c(c1)C(=NN=C(N)N)c1cc(OCCC)ccc1-2 | inactive: -7.07%
Cc1ccc(NC(=O)c2ccc3c(c2)C(=O)N(CC2CCCO2)C3=O)cc1C (configuration not stated) | inactive: 21.6%
O=C(O)CC1Sc2nnc(COc3ccc(Cl)cc3)n2N=C1c1ccccc1 (configuration not stated) | inactive: 10.9%
Cc1cnc(NC(=O)c2ccccn2)s1 | inactive: -1.58%
COc1cc(OC)c(OC)cc1/C=C/c1cc(C(F)(F)F)[nH]c(=O)n1 | inactive: 17.1%
